Among all 420,000 compounds or so, about 64,000 (15%) were called active. This list was built around the results that the source calls inconclusive (neither active nor inactive); the mix of calls is not that of the screen. Calls come from the whole dose curve; as a rule, active = well fitted inhibition curve with a large enough effect; inconclusive = small, poorly fitted or top-dose-only effect; inactive = flat fitted curve, though single readings scatter. No potency is given beside an inconclusive call; the fits are too rough.
Test: qHTS for Inhibitors of human tyrosyl-DNA phosphodiesterase 1 (TDP1): qHTS in cells in absence of CPT; note: nearly all actives have a fitted effect of over 55% in size
Details: DT40 Tdp1-/- hTDP1 cells, no CPT, ATP luminescence, 48 h; activity change, negative = growth inhibition: at 46.2 µM (top of the series) unless noted
How it was run: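 Chicken DT40 Tdp1-/- cells complemented with human TDP1, screened without camptothecin (DMSO vehicle only), 400 cells/well. Compounds pin-transferred, cells incubated at 37 °C for at least 48 hr. Growth read as ATP-dependent luminescence (CellTiter-Glo, 30 min at RT).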
% is set by controls: 0 for no effect and ±100 for the full control effect; potency is the fitted concentration of half-maximal effect; tags give direction and shape of the fitted curve.

SMILES | Potency | activity change, negative = growth inhibition
COc1ccc(/C=C2\SC(=S)N(CCCC(=O)Nc3ccccn3)C2=O)cc1OC | active: 29.1 µM | 
CC1=NN(/C(=N\c2nnc(C)s2)Nc2ccccc2)[C@H](c2cccc3ccccc23)S1 | inconclusive [inhibitor, single point] | 
CCc1ccc(NC(=S)NC(=O)c2c(-c3ccccc3Cl)noc2C)cc1 | inconclusive [inhibitor, single point] | 
O=C(NCCCSc1ccccc1)c1cc(Cl)ccc1O | inconclusive [inhibitor, single point] | 
CC1(C(=O)Nc2cccc(Oc3ccccc3)c2)CCN1Cc1cc2ccccc2o1 (configuration not stated) | inconclusive [inhibitor, single point] | 
COc1ccc(N2CCN(S(=O)(=O)CCNC(=O)C(C)Oc3ccccc3)CC2)cc1 (configuration not stated) | inconclusive [inhibitor, single point] | 
N=c1sccn1CC(=O)Nc1cccc(Oc2ccccc2)c1 | active: 22.4 µM | 
CCOc1ccc(N2CC(C(=O)Nc3ccc(OC)c(S(=O)(=O)N4CCCCC4)c3)CC2=O)cc1 (configuration not stated) | inconclusive [inhibitor, single point] | 
O=S(=O)(c1ccc2c(c1)CCCN2)N1CCCC2CCCCC21 (configuration not stated) | inconclusive [inhibitor, single point] | 
COc1ccc(Cl)cc1NC(=S)NCCc1c[nH]c2ccccc12 | inconclusive [inhibitor, single point] | 
O=C(Nc1ccc(O)cc1)c1ccccc1OCc1ccccc1 | inconclusive [inhibitor, single point] | 
Cc1c(C(=O)NCC(C)(C)N2CCOCC2)cnn1-c1nccc(-c2cccs2)n1 | inactive | 
O=C(Nc1cccc(-n2cnnn2)c1)c1cccnc1 | inconclusive [inhibitor, single point] | 
Cc1ccccc1Cn1c(CN2CCC(C(=O)NCc3cccnc3)CC2)cc2ccccc21 | inconclusive [inhibitor, single point] | 
C=CCOc1ccc(C2C(C(=O)c3cccs3)=C(O)C(=O)N2c2nnc(C)s2)cc1 (configuration not stated) | inactive | 
CCOC(=O)C1CCN(C(=O)Cn2nc(C)n3c(cc4sccc43)c2=O)CC1 | inconclusive [inhibitor, single point] | 
Cc1ccc(Cl)cc1NC(=O)Cn1c(=O)cc(C)c2c(C)nn(C)c21 | inconclusive [inhibitor, single point] | 
O=C(Cn1c(=O)c2sccc2n(Cc2ccc([N+](=O)[O-])cc2)c1=O)NCCc1ccccc1 | active: 13 µM | 
COc1cc(NC(=O)c2ccc(COc3ccccc3Br)o2)cc(OC)c1OC | active: 23.1 µM | 
O=C1N=c2ccccc2=C1c1sc(Nc2cccc(O)c2)nc1O | inconclusive [inhibitor, single point] | 
N#C/C(=C1/CCCN1)c1ccccn1 | inactive | 
O=C(COC(=O)CC1CCCC1)Nc1ccc(Cl)cc1 | inactive | 
C=CCn1c(-c2ccc(OC)c(OC)c2)cs/c1=N\c1ccccn1 | inconclusive [inhibitor, single point] | 
Cc1cccc(C)c1NC(=O)C1(C)CSCC(=O)N1CCCn1ccnc1 (configuration not stated) | inactive | 

SMILES | Potency | activity change, negative = growth inhibition
CN1CCN(c2nc(-c3ccccn3)nc3ccccc23)CC1 | inconclusive [inhibitor, single point] | 
CCOc1c(CNCCN2CCOCC2)cccc1OC | inactive | 
COc1cccc(/C=N/n2cnc3c(cnn3-c3ccccc3)c2=O)c1 | inactive | 
COc1ccc(NC(=O)CSc2nc3ccccc3c(=O)n2CCCO)cn1 | inactive | 
Cc1ccc(OCCC(=O)OCC(=O)N2c3ccccc3NC(=O)C2(C)C)cc1 | inconclusive [inhibitor, partial curve] | 
Cc1c(C(=O)OCC(=O)Nc2ccc(C(N)=O)cc2)cccc1[N+](=O)[O-] | inactive | 
CCOC(=O)N1CCC(NC(=O)c2cccc3c2C(=O)N(c2ccc(OC)cc2)C3)CC1 | inconclusive [inhibitor, single point] | 
CN(C)c1ccc(/C=C/c2nnnn2-c2ccccc2)cc1 | inconclusive [inhibitor, single point] | 
Cn1c(N/N=C/c2ccccc2)nc2sc3c(c2c1=O)CCC3 | inconclusive [inhibitor, partial curve] | 
Nc1nc(CSC(=S)N2CCCCC2)nc(Nc2ccccc2)n1 | inconclusive [inhibitor, single point] | 
CSc1ncnc2c1ncn2CCCNc1ccc(C)c(C)c1 | active: 20.6 µM | 
COC(=O)N1CC(=O)N(OC)C1c1ccc(Cl)cc1Cl (configuration not stated) | inactive | 
O=C(NCCc1c[nH]c2ccccc12)C(=O)NCC1OCCN1S(=O)(=O)c1cc(F)ccc1F (configuration not stated) | inconclusive [inhibitor, single point] | 
COc1ccccc1CN(C(=O)CNC(=O)c1ccco1)C(C(=O)NCC1CCCO1)c1ccccc1 (configuration not stated) | inconclusive [inhibitor, single point] | 
CCOC(=O)N1CCN(Cc2nc3c(c(=O)n(C)c(=O)n3C)n2Cc2ccc(F)cc2)CC1 | inconclusive [inhibitor, single point] | 
O=C(CNC(=O)c1ccc2ccccc2c1)OCC(=O)N1CCN(S(=O)(=O)c2ccc3ccccc3c2)CC1 | inconclusive [inhibitor, single point] | 
CS(=O)(=O)N1CCN(C/C=C/c2ccccc2)CC1 |  | inconclusive: -32.8% [inhibitor]
CCOc1ccc(C(C)=O)cc1CSC(=N)N | active: 20.6 µM | 
Cc1cccc(-n2cnc3cc(C(=O)N4CCCCC4)ccc32)c1 | inconclusive [inhibitor, single point] | 
Cc1cc(C)c(C)c(SCC(=O)Nc2oc(C)c3c(C)n[nH]c(=O)c23)c1C | inconclusive [inhibitor, single point] | 
O=C(CCn1c(=O)c2sccc2n(Cc2ccc(F)cc2)c1=O)NCc1ccc2c(c1)OCO2 | inactive | 
COc1cccc(Nc2nnc(-c3cc4ccc(O)cc4oc3=O)s2)c1 | active: 23.1 µM | 
CC(NC(=S)NC1CCCCC1)C(c1ccccc1)N1CCOCC1 (configuration not stated) | inconclusive [inhibitor, partial curve, poor fit] | 
Cc1onc(-c2c(F)cccc2Cl)c1C(=O)OCC(=O)N(C)c1ccccc1 | active: 0.92 µM | 

SMILES | Potency | activity change, negative = growth inhibition
O=C(CCCCCn1c(=S)[nH]c2cc3c(cc2c1=O)OCO3)N1CCN(C2CCCCC2)CC1 | inconclusive [inhibitor, single point] | 
COc1ccccc1NC(=O)CCC(=O)OCc1cccc([N+](=O)[O-])c1 | inactive | 
O=C(/C=C/c1c(F)cccc1Cl)c1ccc(F)cc1 | active: 25.9 µM | 
CN(Cc1ccccc1)c1nc2c(c(=O)[nH]c(=O)n2C)n1CCOc1ccccc1 | active: 16.4 µM | 
Cc1ccc(CNn2cn[nH]c2=S)cc1 | inactive | 
O=C(c1ccc(Cn2cc(Br)cn2)o1)N1N=C(C(F)F)CC1(O)C(F)F (configuration not stated) | inconclusive [inhibitor, single point] | 
Cc1ccc(NC(=O)CC2Oc3ccc(C)cc3NC2=O)c(C)c1 (configuration not stated) | active: 20.6 µM | 
CCCCCn1c(=O)[nH]c2cc(C(=O)NC3CCN(Cc4ccccc4)CC3)ccc2c1=O | inconclusive [inhibitor, partial curve] | 
CC(C)OC(=O)CC(=O)c1sc2nc3c(cc2c1N)CN(C)CC3 | inconclusive [inhibitor, single point] | 
Cc1ccc(SC[C@H](c2ccccc2)N2CCN(CC(C)C)CCC2=O)cc1 | active: 11.6 µM | 
S=C(Nc1ccc2cn[nH]c2c1)Nc1ccc(Cl)cc1Cl | inconclusive [inhibitor, full curve, poor fit] | 
Cc1ccc(CSc2c(C)cnc3c2c(=O)n(C)c(=O)n3C)cc1 | inconclusive [inhibitor, single point] | 
CC1=C(C(=O)N(C)C)CC(CC(=O)NCc2ccco2)C(=O)N1Cc1ccccc1 (configuration not stated) | inactive | 
Cc1ccc(NC(=O)C2SC(=Nc3ccccc3)C(C(=O)Nc3ccc(Cl)cc3)=C2N)cc1 (configuration not stated) | active: 18.4 µM | 
O=C(N/N=C/c1ccccn1)c1cc(-c2ccc(Br)s2)[nH]n1 | inconclusive [inhibitor, single point] | 
C/C(=N\NC(=O)c1ccc(Cl)cc1)c1cccc(NC(=O)c2cccnc2)c1 | inconclusive [inhibitor, single point] | 
CC1C(=O)Nc2ccc(S(=O)(=O)N3CCCCCC3)cc21 (configuration not stated) | inactive | 
CC(O)CNc1nc2sc3c(c2c(=O)n1Cc1ccco1)CCCCC3 (configuration not stated) | inconclusive [inhibitor, single point] | 
COc1ccccc1S(=O)(=O)Cc1ccc(C(=O)NCc2cccs2)o1 | inconclusive [inhibitor, single point] | 
CC(=O)c1ccc(S(=O)(=O)N2CCN(CC(=O)NC(=O)NC3CCCCC3)CC2)cc1 | inconclusive [inhibitor, single point] | 
Cc1ccn2c(=O)nc(SCC(=O)N3CCCC3)nc2c1 | inactive | 
O=C(CSc1nccn(-c2cccc(F)c2)c1=O)Nc1ccc(Cl)cc1F | inactive | 
CC(=O)Nc1ccc(N2CCOCC2)c(C(=O)Nc2cccc(C)c2)c1 | inconclusive [inhibitor, single point] | 
CCCC(=O)NC(NC(=S)Nc1c(C)n(C)n(-c2ccccc2)c1=O)C(Cl)(Cl)Cl (configuration not stated) | active: 29.1 µM | 
